From PubChem BioAssay AID1768 (National Center for Advancing Translational Sciences (NCATS), 2009)
Values joined by “and” are separate entries in the source; they are usually repeats but may differ in a detail not shown here. Equal values may be shown once. In all, about 270,000 compounds went through this assay and about 620 (0.23%) were called active. This list was built around the results that the source calls inconclusive (neither active nor inactive); the mix of calls is not that of the screen. Calls follow the shape of the dose curve; as a rule, active = well fitted inhibition curve with a large enough effect in the polarisation, with a control signal flat (not every such curve was filed as active); inconclusive = small, poorly fitted or top-dose-only effect, or effect the other way, or a change in a side signal; inactive = no such curve, though single readings can be large or run the other way; the % refers to the polarisation. A potency beside an inconclusive call is a rough fit, not a confirmed value. “Side channel” marks fits to a control or component signal instead of the main read-out.

target: Menin (Homo sapiens) (UniProt O00255); assay: qHTS Assay for Inhibitors Targeting the Menin-MLL Interaction in MLL Related Leukemias: Competition With Texas Red Labeled MLL-derived Mutant Peptide; details: fluorescence polarization; series mostly up to 61.6 µM
Potency is read from the fitted curve at half-maximal effect; tags tell the direction and shape of the fitted curve or compound fluorescence and quenching.

Sequence of UniProt O00255 (O00255 whole entry, looked up): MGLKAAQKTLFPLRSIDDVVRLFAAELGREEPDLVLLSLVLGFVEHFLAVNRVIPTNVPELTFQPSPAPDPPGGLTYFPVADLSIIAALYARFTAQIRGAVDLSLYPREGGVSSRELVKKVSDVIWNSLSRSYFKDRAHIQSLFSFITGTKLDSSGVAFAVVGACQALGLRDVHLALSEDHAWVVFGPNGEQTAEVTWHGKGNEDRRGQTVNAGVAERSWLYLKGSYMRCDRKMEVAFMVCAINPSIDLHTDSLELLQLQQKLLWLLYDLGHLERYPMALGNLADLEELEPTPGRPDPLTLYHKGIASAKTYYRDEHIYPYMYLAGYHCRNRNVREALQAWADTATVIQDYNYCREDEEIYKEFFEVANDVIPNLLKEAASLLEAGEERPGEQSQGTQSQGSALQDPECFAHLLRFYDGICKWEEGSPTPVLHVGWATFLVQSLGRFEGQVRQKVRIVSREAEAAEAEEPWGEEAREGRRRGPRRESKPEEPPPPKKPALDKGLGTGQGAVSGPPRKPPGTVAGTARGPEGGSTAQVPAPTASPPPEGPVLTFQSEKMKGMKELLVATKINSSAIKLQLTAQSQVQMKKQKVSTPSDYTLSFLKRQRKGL

| Compound | Potency |
| --- | --- |
| CC(C)(C)C(=O)[C@@H]1[C@@H]2C(=O)N(c3ccc4c(c3)OCCO4)C(=O)[C@@H]2C2c3ccccc3C=CN21 (stereo partly specified) | inconclusive: 31.6 µM [quencher, side channel, single point] |
| Cc1nn(-c2ccccc2)c2sc(C(=O)NNC(=O)COc3cccc4ccccc34)cc12 | inconclusive: 39.8 µM [inhibitor, single point] |
| CCCCCCN1C=CC=C/C1=C/C=C(C#N)C#N | inconclusive: 35.5 µM [inhibitor, partial curve] |
| Cc1cccc(N2CC(C(=O)Nc3nnc(SCCC4OCCO4)s3)CC2=O)c1 (stereo unspecified) | inconclusive: 12.6 µM [quencher, side channel, partial curve] |
| NC(=O)n1c(O)c(C(=O)c2cccs2)c2cc(Cl)ccc21 | inconclusive: 28.2 µM [quencher, side channel, partial curve] and inconclusive: 11.2 µM [quencher, side channel, partial curve] |
| O=C(Nc1ccccc1O)N1c2ccccc2Sc2ccccc21 | inconclusive: 39.8 µM [quencher, side channel, single point] |
| Cc1ccc(N(C(=O)c2ccc3c(c2)OCO3)C2C=CS(=O)(=O)C2)cc1 (stereo unspecified) | inconclusive: 8.91 µM [inhibitor, single point] |
| Cc1cnc(CN(C)Cc2c(C(=O)N3CCc4ccccc4C3)nc3ccc(Cl)cn23)[nH]1 | inconclusive: 39.8 µM [fluorescent, side channel, single point] |
| CCOC(=O)c1sc(-c2cccc([N+](=O)[O-])c2)cc1N | inconclusive: 12.6 µM [quencher, side channel, partial curve] |
| COc1ccc(/C=N/OC/C(O)=C(\C#N)c2nc3ccccc3[nH]2)cc1 | inconclusive: 39.8 µM [quencher, single point] |
| NS(=O)(=O)c1ccc(N=Nc2c(=O)[nH]n3c(=O)c4c([nH]c23)CCCC4)cc1 | inconclusive: 15.8 µM [quencher, side channel, partial curve] |
| O=C(Nc1cccc(C(=O)Nc2ccc(Cl)cn2)c1)c1ccccc1 | inconclusive: 39.8 µM [fluorescent, single point] |
| CCO[C@@H]1OC(C(=O)NCc2ccccc2)=C[C@H](C2CCCCC2)[C@H]1CCCO | inconclusive: 7.94 µM [fluorescent, side channel, full curve] |
| O=C(Nc1ccc(S(=O)(=O)NCc2ccco2)cc1)c1ccc(F)cc1 | inconclusive: 39.8 µM [fluorescent, single point] |
| CC(=O)OCC(NC(=O)C1CCCN1C(=O)OC(C)(C)C)C1OC(n2cc(F)c(=O)[nH]c2=O)C(OC(C)=O)C1OC(C)=O (stereo unspecified) | inactive |
| CC(/C=C/c1ccc(N(C)C)cc1)=N/N=C1/NC(=O)CC(C(=O)Nc2ccc(Cl)cc2)S1 (stereo unspecified) | inconclusive: 6.31 µM [quencher, side channel, partial curve] |
| Cc1cc(OCCN2CCCCCC2)ccc1[N+](=O)[O-] | inconclusive: 0.708 µM [inhibitor, full curve, poor fit] |
| CCn1cc([N+](=O)[O-])c(C(=O)N2N=C(c3ccc(Cl)c(Cl)c3)CC2c2ccccc2O)n1 (stereo unspecified) | inactive |
| CC(C)CN1CCC(=O)N([C@H](CSc2ccccc2)Cc2ccccc2)CC1 | inactive |

| Compound | Potency |
| --- | --- |
| Cc1ccc(-n2c(O)c(C=Nc3ccccc3-c3n[nH]c(=S)[nH]c3=O)c3ccccc3c2=O)cc1C | inconclusive: 11.2 µM [quencher, side channel, partial curve] |
| COc1ccc2[nH]c(=O)c(CN(C)C(=O)C3CCCCC3)cc2c1 | inactive |
| O=C(CSc1nc2ccccc2s1)N1c2ccccc2Sc2ccc(Cl)cc21 | active: 20 µM |
| O=C(Nc1ccccc1F)C(=O)Nc1cccc2ccccc12 | inconclusive: 31.6 µM [inhibitor, single point] |
| O=[N+]([O-])c1ccc(Nc2cccc(F)c2)nc1 | inconclusive: 31.6 µM [quencher, side channel, single point] |
| Cc1ccc2c(CC(=O)OCc3cc(=O)n4c(n3)sc3ccccc34)coc2c1 | inconclusive: 20 µM [quencher, side channel, partial curve] |
| COc1cc(OC)cc(C(=O)NC(=S)NCCc2ccccc2)c1 | inconclusive: 39.8 µM [quencher, side channel, single point] |
| S=C(NCc1ccco1)Nc1ccc(Cl)c(Cl)c1 | inconclusive: 15.8 µM [quencher, side channel, partial curve] |
| COc1ccc(C(=O)Nc2ccccc2C(=O)N2CCCCC2C)cc1 (stereo unspecified) | inconclusive: 22.4 µM [fluorescent, side channel, single point] |
| O=C(Cn1c(=O)n(Cc2ccco2)c(=O)c2c3c(sc21)CCCCC3)c1ccccc1 | inconclusive: 25.1 µM [quencher, side channel, single point] |
| CCCCN(CCCNC(=O)CN1C(=O)COc2ccc(S(=O)(=O)N3CCC(C)CC3)cc21)Cc1ccccc1 | inconclusive: 14.1 µM [inhibitor, partial curve] |
| Cc1nc2c(C(=O)N3CCCCC3)cnn2c(C)c1Cc1ccccc1F | inconclusive: 12.6 µM [inhibitor, partial curve] |
| COc1cc(OC)c2c(c1C(CCN1CCCC(C)C1)c1ccc(N(C)C)cc1)OC(=O)CC2c1ccc(N(C)C)cc1 (stereo unspecified) | inactive |
| N#CCCn1c(=O)c(-c2cccs2)nc2cnc(N3CCNCC3)nc21 | inactive |
| Cc1ccc(-n2[nH]c(C)c(/C=N/n3c(C)nc4ccccc4c3=O)c2=O)cc1 | inconclusive: 25.1 µM [quencher, side channel, single point] |
| O=C1CSc2ccc(C(=O)Nc3cccc(S(=O)(=O)Nc4ccc(Br)cc4)c3)cc2N1 | inconclusive: 2.24 µM [quencher, side channel, full curve] |
| C=CCNc1nc(Nc2ccc([N+](=O)[O-])cc2)nc(N2CCCC2)n1 | inconclusive: 11.2 µM [quencher, side channel, partial curve] |
| Cc1csc(Sc2ccc(C(=O)OCC(=O)Nc3ccc(OC(F)(F)F)cc3)cc2[N+](=O)[O-])n1 | inconclusive: 31.6 µM [quencher, side channel, single point] |
| Cc1ccc(NC(=O)CCn2c(=S)oc3ccccc32)cc1 | inconclusive: 39.8 µM [inhibitor, single point] |

| Compound | Potency |
| --- | --- |
| CC(O)CNCCNCc1c(OCc2ccccc2)ccc2ccccc12 (stereo unspecified) | inconclusive: 8.91 µM [fluorescent, side channel, full curve, poor fit] |
| [O-][n+]1c2ccccc2[n+]([O-])c2cc(O)ccc21 | inconclusive: 12.6 µM [fluorescent, side channel, partial curve] |
| CC(=O)N(C)N1c2ccccc2CCc2ccccc21 | inconclusive: 10 µM [fluorescent, side channel, partial curve] |
| CCCCN(CCCC)CC(O)COc1ccccc1Br (stereo unspecified) | inconclusive: 28.2 µM [fluorescent, side channel, single point] |
| COc1ccc(-c2cc(=O)oc3cc(OCC(=O)NCc4ccccn4)ccc23)cc1 | inconclusive: 22.4 µM [fluorescent, side channel, partial curve] |
| COc1ccc(OC)c2c(C)cc(N3CCN(C(=O)c4ccc(F)cc4)CC3)nc12 | inactive |
| CN(Cc1ccccc1)C(=O)COc1ccc(C(C)(C)C)cc1 | inconclusive: 11.2 µM [fluorescent, side channel, partial curve] |
| Cc1ccc(S(=O)(=O)NC2OC(=O)C(Cl)=C2Cl)cc1 (stereo unspecified) | inactive |
| O=C(C1=C[C@@H](c2ccc3c(c2)OCO3)C[C@@H](OCCCCO)O1)N1CCN(Cc2ccc3c(c2)OCO3)CC1 | inconclusive: 15.8 µM [inhibitor, single point] |
| COc1ccccc1C(=O)NCCOc1ccc(C(C)(C)C)cc1 | inconclusive: 22.4 µM [fluorescent, side channel, partial curve] |
| O=C(Nc1ccccc1)c1ccc(NCCN2C(=O)CCC2=O)c([N+](=O)[O-])c1 | inconclusive: 31.6 µM [quencher, side channel, single point] |
| Oc1c(N=NC(=S)Nc2ccccc2F)c2ccccc2n1Cc1ccc(Cl)cc1 | inconclusive: 10 µM [quencher, side channel, partial curve] |
| COc1ccc(C(=O)CC(=O)c2ccc(C(C)(C)C)cc2)cc1 | inactive |
| CC(=O)O[C@H]1C(=O)[C@@]2(C)C([C@H](OC(=O)c3ccccc3)[C@]3(O)C[C@H](OC(=O)[C@H](O)[C@@H](NC(=O)c4ccccc4)c4ccccc4)C(C)=C1C3(C)C)[C@]1(OC(C)=O)CO[C@@H]1C[C@@H]2O (stereo partly specified) | inconclusive: 4.47 µM [fluorescent, side channel, partial curve] |
| Cc1cc(C(C)(C)C)n2nc(C)c(-c3ccccc3)c2n1 | inconclusive: 2.82 µM [inhibitor, full curve, poor fit] |
| Cc1ccc(-c2cc(C(=O)NCc3ccco3)c3ccccc3n2)s1 | inconclusive: 25.1 µM [quencher, side channel, single point] |
| Cc1cccc(N2CCN(Cc3cc(=O)n4ccsc4n3)CC2)c1C | inactive |
| Cn1cc(CN2C[C@]3(C)C[C@H]2CC(C)(C)C3)c(-c2ccc3c(c2)OCCO3)n1 | inconclusive: 28.2 µM [fluorescent, side channel, single point] |
